Positions count from the first letter of the chain named. One block for each binder: values may come before it.
Legend:
[1] = biological target: T1, CD98 on FaDu cells (human, UniProt P08195 2-529); assay: cell-based or functional assay
T1 sequence (looked up): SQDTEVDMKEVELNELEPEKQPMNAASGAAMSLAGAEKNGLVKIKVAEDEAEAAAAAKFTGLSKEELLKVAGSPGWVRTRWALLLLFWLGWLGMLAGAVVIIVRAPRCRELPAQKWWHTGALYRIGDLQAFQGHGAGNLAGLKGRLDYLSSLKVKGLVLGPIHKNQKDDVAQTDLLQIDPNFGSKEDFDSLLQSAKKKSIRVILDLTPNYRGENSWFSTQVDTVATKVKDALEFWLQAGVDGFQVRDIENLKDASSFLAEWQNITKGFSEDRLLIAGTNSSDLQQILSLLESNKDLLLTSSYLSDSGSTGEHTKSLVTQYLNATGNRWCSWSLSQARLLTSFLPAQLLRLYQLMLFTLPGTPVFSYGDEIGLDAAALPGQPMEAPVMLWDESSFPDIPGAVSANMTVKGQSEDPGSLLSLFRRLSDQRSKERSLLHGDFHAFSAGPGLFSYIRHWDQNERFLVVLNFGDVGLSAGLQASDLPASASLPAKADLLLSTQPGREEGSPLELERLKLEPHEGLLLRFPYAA

[2] = biological target: T2, biotinylated human CD98 antigen (human, UniProt P08195 105-529, biotinylated with EZ-Link NHS-PEG4-Biotin (ELISA)); assay: SPR Biacore T200, antibody captured on anti-human IgG (Fc), CD98 antigen as analyte, multi-cycle kinetics
T2 construct: extracellular domain
T2 sequence (looked up): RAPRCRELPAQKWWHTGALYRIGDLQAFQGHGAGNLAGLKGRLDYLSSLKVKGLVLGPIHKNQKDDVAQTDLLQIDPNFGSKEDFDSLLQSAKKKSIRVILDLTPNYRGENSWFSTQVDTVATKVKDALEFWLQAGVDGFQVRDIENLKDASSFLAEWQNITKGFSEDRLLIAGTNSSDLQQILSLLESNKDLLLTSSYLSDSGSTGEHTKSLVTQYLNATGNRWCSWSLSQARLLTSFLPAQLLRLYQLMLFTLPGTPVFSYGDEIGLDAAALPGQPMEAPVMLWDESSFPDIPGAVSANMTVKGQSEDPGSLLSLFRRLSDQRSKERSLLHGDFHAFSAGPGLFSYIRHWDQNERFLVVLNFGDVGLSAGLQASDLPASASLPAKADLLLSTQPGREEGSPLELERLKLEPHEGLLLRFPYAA

[3] = biological target: T2, biotinylated human CD98 antigen; assay: ELISA, immobilised biotinylated human CD98 antigen, chemiluminescence
[4] = biological target: T2, biotinylated human CD98 antigen; assay: ELISA on immobilised biotinylated human CD98 antigen, pH 5.5
[5] = biological target: T2, biotinylated human CD98 antigen; assay: ELISA pH 7.5 against pH 5.5
[6] = biological target: T2, biotinylated human CD98 antigen; assay: ELISA, immobilised biotinylated human CD98 antigen, chemiluminescence; pH 7.5
[7] = biological target: T2, biotinylated human CD98 antigen; assay: ELISA, immobilised biotinylated human CD98 antigen, chemiluminescence; pH 5.5
[8] = biological target: T3, biotinylated amino terminal peptide of human GPRC5D (human, added C-terminal Lys carries biotin, K (Biotin)-NH2 (C-terminal amide)); assay: ELISA, immobilised biotinylated amino terminal peptide of human GPRC5D, chemiluminescence
T3 construct: Synthetic peptide (Peptide Institute); also called human GPRC5D antigen
T3 peptide: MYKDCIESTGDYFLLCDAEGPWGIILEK

in vitro growth inhibitory activity on FaDu cells, EC50 ratio (pH 7.4/pH 5.5) [1]: 10.9
B1: MhM1024-M1-DXd-ADC (antibody, human IgG1, kappa)
heavy: QVQLVQSGAEVKKPGASVKVSCKASGAAFSNYLIEWVRQAPGQGLEWMGVINPGSGVTNYNEKFKGRVTITADTSTSTAYMELSSLRSEDTAVYYCARAEAWFAYWGQGTLVTVSSASTKGPSVFPLAPSSKSTSGGTAALGCLVKDYFPEPVTVSWNSGALTSGVHTFPAVLQSSGLYSLSSVVTVPSSSLGTQTYICNVNHKPSNTKVDKRV[human IgG1 Fc not spelt out]
light: GNFYHQYPWPLEILGSGGGGSGHHHGGHHHGGHHHGGSDIVMTQSPDSLAVSLGERATINCKSSQSLLYSSNQKNYLAWYQQKPGQPPKLLIYWASTRESGVPDRFSGSGSGTDFTLTISSLQAEDVAVYYCQRYYGYPWTFGQGTKVEIKRTVAAPSVFIFPPSDEQLKSGTASVVCLLNNFYPREAKVQWKVDNALQSGNSQESVTEQDSKDSTYSLSSTLTLSKADYEKHKVYACEVTHQGLSSPVTKSFNRGEC
modifications: Linker 1 (DXd drug linker) on cysteines of reduced disulfide bonds between antibody chains; Linker 1 (DXd drug linker) on cysteines of reduced disulfide bonds between antibody chains; average number of drugs bound 7.2 per antibody

Kd [2]: 0.58 nM
EC50 (read off the curve) [3]: ~0.8 nM
B2: anti-CD98 antibody hM23H1L1 (antibody)
heavy: B1 heavy with A27Y
light: DIVMTQSPDSLAVSLGERATINCKSSQSLLYSSNQKNYLAWYQQKPGQPPKLLIYWASTRESGVPDRFSGSGSGTDFTLTISSLQAEDVAVYYCQRYYGYPWTFGQGTKVEIKRTVAAPSVFIFPPSDEQLKSGTASVVCLLNNFYPREAKVQWKVDNALQSGNSQESVTEQDSKDSTYSLSSTLTLSKADYEKHKVYACEVTHQGLSSPVTKSFNRGEC
notes: Known antibody of WO 2015/146132; Full-length entries

EC50 (read off the curve) [4]: ~8 nM
Comparison of EC50 ratio (neutral pH/acidic pH, relative to MhM1026-M1 designated as 1) [5]: 1
B3: anti-CD98 masked antibody MhM1026-M1 (antibody)
heavy: B1 heavy
light: GNFYHQYPWPLEILGSGGGGSGGGHHHGGHHHGGHHHGGSDIVMTQSPDSLAVSLGERATINCKSSQSLLYSSNQKNYLAWYQQKPGQPPKLLIYWASTRESGVPDRFSGSGSGTDFTLTISSLQAEDVAVYYCQRYYGYPWTFGQGTKVEIKRTVAAPSVFIFPPSDEQLKSGTASVVCLLNNFYPREAKVQWKVDNALQSGNSQESVTEQDSKDSTYSLSSTLTLSKADYEKHKVYACEVTHQGLSSPVTKSFNRGEC
notes: Full-length entries

in vitro growth inhibitory activity on FaDu cells, EC50 ratio (pH 7.4/pH 5.5) [1]: 2.8
B4: MhM1018-M1-DXd-ADC (antibody, human IgG1, kappa)
heavy: B1 heavy
light: GNFYHQYPWPLEILGSGSGGGGSGGGGSGGGGSGGSDIVMTQSPDSLAVSLGERATINCKSSQSLLYSSNQKNYLAWYQQKPGQPPKLLIYWASTRESGVPDRFSGSGSGTDFTLTISSLQAEDVAVYYCQRYYGYPWTFGQGTKVEIKRTVAAPSVFIFPPSDEQLKSGTASVVCLLNNFYPREAKVQWKVDNALQSGNSQESVTEQDSKDSTYSLSSTLTLSKADYEKHKVYACEVTHQGLSSPVTKSFNRGEC
modifications: Linker 1 (DXd drug linker) on cysteines of reduced disulfide bonds between antibody chains; Linker 1 (DXd drug linker) on cysteines of reduced disulfide bonds between antibody chains; average number of drugs bound 7.4 per antibody

EC50 (read off the curve) [6]: ~30 nM
EC50 (read off the curve) [7]: ~2 nM
B5: anti-CD98 masked antibody MhM1024-M1 (antibody)
heavy: B1 heavy
light: B1 light
notes: His cluster linker; Full-length entries

EC50 (read off the curve) [4]: ~2 nM
Comparison of EC50 ratio (neutral pH/acidic pH, relative to MhM1026-M1 designated as 1) [5]: 4.3
B6: anti-CD98 masked antibody MhM1042-M1 (antibody)
heavy: B1 heavy
light: B3 light with G24R
notes: Arg near the His cluster; Full-length entries

Comparison of EC50 ratio (neutral pH/acidic pH, relative to MhM1026-M1 designated as 1) [5]: 1.1
B7: anti-CD98 masked antibody MhM1046-M1 (antibody)
heavy: B1 heavy
light: B3 light with G34K
notes: Lys near the His cluster; Full-length entries

EC50 (read off the curve) [4]: ~3 nM
Comparison of EC50 ratio (neutral pH/acidic pH, relative to MhM1026-M1 designated as 1) [5]: 4
B8: anti-CD98 masked antibody MhM1043-M1 (antibody)
heavy: B1 heavy
light: B3 light with G34R
notes: as for B6

EC50 (read off the curve) [4]: ~2 nM
Comparison of EC50 ratio (neutral pH/acidic pH, relative to MhM1026-M1 designated as 1) [5]: 5.2
B9: anti-CD98 masked antibody MhM1028-M1 (antibody)
heavy: B1 heavy
light: B3 light with G29R
notes: as for B6

Comparison of EC50 ratio (neutral pH/acidic pH, relative to MhM1026-M1 designated as 1) [5]: 1
B10: anti-CD98 masked antibody MhM1045-M1 (antibody)
heavy: B1 heavy
light: B3 light with G24K
notes: as for B7

Comparison of EC50 ratio (neutral pH/acidic pH, relative to MhM1026-M1 designated as 1) [5]: 1.1
B11: anti-CD98 masked antibody MhM1044-M1 (antibody)
heavy: B1 heavy
light: B3 light with G29K
notes: as for B7

EC50 (read off the curve) [6]: ~100 nM
EC50 (read off the curve) [7]: ~80 nM
B12: anti-CD98 masked antibody MhM1018-M1 (antibody)
heavy: B1 heavy
light: B4 light
notes: No His cluster; Full-length entries

Kd [2]: 10.3 nM
B13: anti-CD98 antibody hM23-M1 (antibody)
heavy: B1 heavy
light: B2 light with T115A
notes: Full-length entries

EC50 (read off the curve) [8]: ~0.3 nM
B14: anti-GPRC5D antibody C3022 (antibody)
heavy: QVQLVQSGAEVKKPGASVKVSCKASGYTFTGYYMHWVRQAPGQGLEWMGRINPNSGGTNYAQKFQGRVTMTRDTSISTAYMELSGLRSDDTAVYYCASGSVRHPWGQGTLVTVSSASTKGPSVFPLAPSSKSTSGGTAALGCLVKDYFPEPVTVSWNSGALTSGVHTFPAVLQSSGLYSLSSVVTVPSSSLGTQTYICNVNHKPSNTKVDKRV[human IgG1 Fc not spelt out]
light: QPVLTQPPSASGTPGQRVTISCSGSRSNIGGNIVSWYQQFPGTAPRLLTYADNQRPSGVPDRFSGSKSGTSASLAISGLQSEDEADYYCAAWDDSLNGVVFGGGTKLTVLGQPKAAPSVTLFPPSSEELQANKATLVCLISDFYPGAVTVAWKADSSPVKAGVETTTPSKQSNNKYAASSYLSLTPEQWKSHRSYSCQVTHEGSTVEKTVAPTECS
notes: Known antibody of WO 2018/147245; Full-length entries

Reference: patent publication US20250170255A1 (Daiichi Sankyo, published 2025)
